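Dose response: 5 concentrations. Exposure: 48 h. Format: 96-well plates. Endpoint: linear interpolation; highest concentration if not reached. GI50 is the concentration that inhibits growth by half.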 Active and inactive are the calls of the source. Cut-off read from the data, not from the text of the source: active = GI50 up to about 1.1 µM and inactive = higher. Some results are limits rather than exact numbers.

This note sets out measurements from ChEMBL document CHEMBL1201862, “PubChem BioAssay data set” (2004).

For the assay, the system named is NCI-H322M. Description: inhibition of tumour cell growth, NCI panel, 48 h.
Take `O=C(O)CS(=O)(=O)C(c1ccccc1)c1ccccc1`: the GI50 was inactive: > 100 µM.
Then `COC(=O)c1nc(-c2nc(CCNC(=O)OC(C)(C)C)sc2Cl)sc1Cl`, with inactive: > 100 µM.
Then `COc1cc2[nH]c(=O)[nH]c2c2c(C)c[nH]c12`, with inactive: > 100 µM; and `Cn1/c(=N\S(=O)(=O)c2ccccc2)[nH]c2ccccc21`, with inactive: > 100 µM; and `O=C1C(Cl)=C(N2CCN(C3=C(Cl)C(=O)c4ccccc4C3=O)CC2)C(=O)c2ccccc21`, with inactive: 12.6 µM.
With `Clc1cccc(C2SCc3nc4ccccc4n32)c1` (stereo unspecified) the figure was inactive: 45.5 µM.
With `CCOC(=O)C(Cc1c2ccccc2cc2ccccc12)(NC(C)=O)C(=O)OCC`, the GI50 is inactive: > 100 µM.
Then `Cc1cccc(C)c1NC(=O)/C(Cl)=C(/Cl)C(=O)O`, with inactive: 34.8 µM; and `Cn1c2ccccc2c2c3c(=O)[nH][nH]c(=O)c3c3c4ccccc4n(C)c3c21`, with inactive: > 100 µM; and `C=C/C(C)=C/[C@H](C)C(=O)C[C@H](O)CC1CC(=O)NC(=O)C1`, with inactive: 33.9 µM.
Turning to `O=C(O)c1cc([N+](=O)[O-])cc2c(=O)c3cnccc3[nH]c12`, the GI50 is inactive: > 100 µM.
With `CCOC(=O)C1C(c2ccc3c(c2)OCO3)c2c(n[nH]c2O)CC1(C)O` (stereo unspecified) the figure was inactive: > 100 µM.
With `C[C@H]1[C@H](C)CC[C@]2(C(=O)OC3OC(CO)C(O)C(O)C3O)CC[C@]3(C)C(=CC[C@@H]4[C@@]5(C)C[C@@H](O)[C@@H]6OC(=O)c7cc(O)c(O)c(O)c7-c7c(cc(O)c(O)c7O)C(=O)OC[C@@]6(CO)[C@@H]5CC[C@]43C)[C@H]12` (stereo partly specified) the figure was inactive: > 100 µM.
With `Cn1c(=O)n(-c2c3ccccc3c(Cl)c3ccccc23)n(C(C)(C)C)c1=O` the figure was inactive: > 100 µM.
Take `COc1cc(C(=O)CC2OC(=O)C(Cl)=C2Cl)ccc1Cl` (stereo unspecified): the GI50 is inactive: > 100 µM.
Consider `Cn1c(=O)c2c(nc3[nH]c(=O)c(Br)cn32)n(C)c1=O`, for which the GI50 is inactive: > 100 µM.
Then `C=C1C(=O)OC2C1C(OC(=O)/C(=C/C)COC(C)=O)CC1(CO1)C1C(OC(=O)/C(=C/C)CO)C=C(C)C21` (stereo unspecified), with inactive: 5.31 µM.
Then `COc1cc2cc3c4c(cc(OC)c(OC)c4c2cc1OC)CCN3C(=O)CCC(=O)NCCCN(C)C`, with inactive: 77.6 µM.
Then `COC(=O)C1C/C(=C/N(C)C)C(=S)N1` (stereo unspecified), with inactive: 27.2 µM; and `CC(C)(C)OC(=O)N1CCC[C@H]1CSC[C@@H]1CCCN1C(=O)OC(C)(C)C`, with inactive: 67.9 µM.
For `CC(=O)Nc1ccc(CNc2cc(=O)n(C)c(=O)[nH]2)cc1`, the GI50 is inactive: > 100 µM.
Then `C1=CN2C[n+]3cccc(OCc4ccccc4)c3N=C2C(OCc2ccccc2)=C1`, with inactive: 58.2 µM; and `O=C(NC(Cc1c[nH]c2ccccc12)C(=O)O)/C(=C/c1ccccc1O)NC(=O)c1ccccc1` (stereo unspecified), with inactive: 36.9 µM.
With `Cn1c(-c2ccccc2)cc2c3ccsc3c3ccsc3c21` the figure was inactive: > 100 µM.
Then `CCN(CC)CCCNc1ccc([N+](=O)[O-])c2nc3ccc(OC)cc3c(N)c12`, with inactive: 1.4 µM; and `Cn1c(=O)c2c(nc3n2CCC(=O)N3)n(C)c1=O`, with inactive: > 100 µM; and `c1ccc(/N=c2/sc3ccccc3s/c2=N/c2ccccc2)cc1`, with inactive: 3.51 µM.
Regarding `CC(=O)O[C@H](C[C@@H](C)[C@H]1C(=O)[C@H](O)[C@@]2(C)C3CC[C@H]4C(C)(C)[C@@H](OC5OCC(O)C(O)C5O)CC[C@@]45C[C@@]35CC[C@]12C)[C@@H]1OC1(C)C` (stereo partly specified), the GI50 is inactive: 19.6 µM.
Then `CCOC(=O)C1(C#N)CC1`, with inactive: > 100 µM; and `COc1ccc(-c2cc(=O)c3c(O)c(O)c(OC)cc3o2)cc1O`, with inactive: > 100 µM.
With `COc1cc(/C=C/c2ccc(Br)cc2)cc(OC)c1OC`, the GI50 was inactive: 20 µM.
